In all, about 310,000 compounds went through this assay and about 2,200 (0.71%) showed an effect of 50% or more. The effect is printed as a negative number. The list shows a part of the results.
Biological target: human ether-à-go-go-related gene (hERG) potassium channel (human, UniProt Q12809)
Assay: primary screen, population patch clamp on CHO cells stably expressing hERG

human ether-à-go-go-related gene (hERG) potassium channel, sequence (Q12809 whole entry, looked up): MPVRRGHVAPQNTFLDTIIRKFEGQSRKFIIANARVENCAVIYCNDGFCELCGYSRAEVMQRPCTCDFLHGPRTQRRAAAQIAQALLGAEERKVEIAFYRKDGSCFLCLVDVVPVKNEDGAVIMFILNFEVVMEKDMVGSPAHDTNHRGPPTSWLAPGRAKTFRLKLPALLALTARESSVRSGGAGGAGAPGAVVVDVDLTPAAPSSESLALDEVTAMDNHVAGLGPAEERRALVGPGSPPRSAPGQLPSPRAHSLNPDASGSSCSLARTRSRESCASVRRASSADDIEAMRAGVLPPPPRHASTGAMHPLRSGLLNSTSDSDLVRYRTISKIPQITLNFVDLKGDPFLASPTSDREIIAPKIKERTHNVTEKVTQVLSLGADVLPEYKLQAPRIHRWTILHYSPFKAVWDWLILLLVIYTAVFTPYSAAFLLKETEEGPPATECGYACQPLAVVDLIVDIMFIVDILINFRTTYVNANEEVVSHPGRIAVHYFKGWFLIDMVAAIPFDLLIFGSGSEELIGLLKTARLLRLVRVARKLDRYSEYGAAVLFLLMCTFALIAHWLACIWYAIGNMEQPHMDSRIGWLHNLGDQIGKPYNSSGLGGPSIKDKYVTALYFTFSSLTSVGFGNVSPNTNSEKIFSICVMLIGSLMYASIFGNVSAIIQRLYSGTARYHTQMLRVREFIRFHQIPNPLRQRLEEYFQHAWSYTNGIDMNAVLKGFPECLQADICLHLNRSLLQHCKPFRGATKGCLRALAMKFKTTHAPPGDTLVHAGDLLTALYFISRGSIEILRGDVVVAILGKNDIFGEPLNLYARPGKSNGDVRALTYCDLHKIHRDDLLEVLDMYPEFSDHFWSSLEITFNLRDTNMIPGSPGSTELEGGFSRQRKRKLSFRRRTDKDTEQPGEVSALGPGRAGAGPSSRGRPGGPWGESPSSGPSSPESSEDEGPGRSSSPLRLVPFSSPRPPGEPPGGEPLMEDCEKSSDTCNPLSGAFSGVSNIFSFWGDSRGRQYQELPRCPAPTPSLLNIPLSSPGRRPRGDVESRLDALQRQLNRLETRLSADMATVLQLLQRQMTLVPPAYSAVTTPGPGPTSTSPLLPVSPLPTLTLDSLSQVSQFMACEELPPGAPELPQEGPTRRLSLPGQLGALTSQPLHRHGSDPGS

Structure (SMILES)	hERG current change (%, negative = inhibition) at 1uM [%]
O=C(CSc1nnnn1-c1cccnc1)Nc1ccc(F)cc1F	11.1
COc1cc(CN(CCc2c(C)[nH]c3ccc(C)cc23)C(=S)NC(C)(C)C)cc(OC)c1OC	10.4
CCC(C(=O)Nc1cccnc1)c1ccccc1 (centres unmarked)	13.6
CC1CCN(C(=O)CCl)CC1	2.62
COc1ccc(N2CCN(C(=O)CN(CCc3ccccc3)S(C)(=O)=O)CC2)cc1	-0.846
O=C(Nc1ccccc1)c1cccc(S(=O)(=O)NCc2ccco2)c1	8.41
CCOc1ccc(CC2S/C(=N/N=C/c3ccco3)NC2=O)cc1 (centres unmarked)	17.5
OCCN=C1CCCc2c1[nH]c1ccc(Br)cc21	12.4
Cc1ccc(NC(=O)COS(=O)c2ccc(C)cc2)cc1 (centres unmarked)	-1.55
CN(C(=O)COC(=O)c1ccc(-c2ccc(O)cc2)cc1)C1CCS(=O)(=O)C1 (centres unmarked)	2.61
COc1ccc(-c2nc(-n3c(C)c(C(C)=O)c(C(C)=O)c3C)sc2C)cc1OC	9.81
CC(=O)N1c2ccc(S(=O)(=O)N3CCC(C(=O)Nc4ccccn4)CC3)cc2CC1C (centres unmarked)	17.6
CCOCCCNC(=O)C1CCCN1C(=O)Nc1ccccc1[N+](=O)[O-] (centres unmarked)	9.35
CC(=O)OC1C2CCCC1C([NH+]1CCCC1)CC2.[Cl-] (centres unmarked)	5.02
CCOc1cc(Br)c(CN2C(=O)NC3(CCCCCC3)C2=O)cc1OCC	10.7
COc1ccc(/C=N/OC/C(O)=C(\C#N)c2nc3ccccc3[nH]2)cc1OC	-0.932
CCCCNC(=O)c1onc(CSc2cccc(OC)c2)c1C(=O)NCCCC	6.46
COc1ccc2c3n([n+]([O-])c2c1)CCN=C3c1ccc(C)cc1	7.29
CCCn1c(C(CO)Nc2nc(-c3cccc(Br)c3)cs2)nc2ccccc21 (centres unmarked)	4.28

Structure (SMILES)	hERG current change (%, negative = inhibition) at 1uM [%]
O=C(c1ccc(Cl)c(NC2=NC3CS(=O)(=O)CC3S2)c1)N1CCN(c2ccc(F)cc2)CC1 (centres unmarked)	13.8
COc1ccccc1C(=O)Nc1cc(Cl)ccc1O	7.76
COc1ccc(-n2nc3cc(C)c(N)c(Br)c3n2)cc1	13.2
Fc1cccc2sc(N3CCCCC3)nc12	8.11
CCOc1ccc(NC(=O)N2CCN(C(=O)c3ccco3)CC2)cc1	5.4
O=c1[nH]nc(Cc2ccc(-c3ccccc3Cl)o2)c2ccccc12	5.09
COc1ccc(C(NC(=O)CNC(C)=O)C(=O)Nc2ccc(C(C)C)cc2)cc1 (centres unmarked)	3.85
O=C1C(=O)N(CCS(=O)(=O)c2ccccc2)c2ccccc21	18.3
O=C(C1CCCN(S(=O)(=O)c2cc(Cl)ccc2Cl)C1)N1CCCCCC1 (centres unmarked)	-7.58
O=C(N/N=C/c1ccc(O)c(O)c1)C1c2ccccc2Oc2ccccc21	1.26
CCOC(=O)C(Cc1c(F)cccc1F)(NC(C)=O)C(=O)OCC	8.71
COc1cc(C(=O)N2CCC(NC(=O)C(Cc3ccc(C(C)C)cc3)NC(C)=O)CC2)cc(OC)c1OC (centres unmarked)	1.91
CCC1CCCCN1CCCNC(=O)c1cn(CC(C)C)c(=O)c2cc(OC)c(OC)cc12 (centres unmarked)	6.03
COC(=O)C1=C(CN2CCc3ccccc32)NC(=O)NC1c1cc(C)ccc1C (centres unmarked)	-6.29
CN1CCC(C(=O)N2CCCC(C(=O)c3ccc4c5c(cccc35)CC4)C2)CC1 (centres unmarked)	-24.8
COc1ccc(C2/C(=C(/O)c3ccccc3)C(=O)C(=O)N2CCCN2CCOCC2)cc1 (centres unmarked)	23.1
Oc1ccc2ccccc2c1C=Nc1ccccc1-c1nc2ccccc2[nH]1	-4.13
O=C1CC(C2CCCO2)C(=O)N1c1ccc(Cl)c(Cl)c1 (centres unmarked)	7.37
CCN(CC)c1ccc(C=Nc2ccc(N(C)C)cc2)c(O)c1	14.9

Structure (SMILES)	hERG current change (%, negative = inhibition) at 1uM [%]
Cc1ccc(/C=C/C(=O)NC(=S)N2CCN(c3ccc(F)cc3)CC2)cc1	7.26
COc1cccc(N2[C@@H](CC(=O)O)c3ccc(/C=C/C(=O)O)cc3S2(=O)=O)c1	17.1
Cc1cc(C)n2nc(-c3ccsc3-n3c(C)ccc3C)cc2n1	10.4
Cc1ccc(S(=O)(=O)/N=C(\N)c2ccc(F)cc2)cc1	8.91
Cc1ccc(S(=O)(=O)N(C)/C(=N/S(=O)(=O)c2ccccc2)c2ccccc2)cc1	0.195
Cc1c(C(C)O)nnn1-c1nonc1N (centres unmarked)	7.21
CCOC(=O)C1=NOC(COc2ccccc2C=O)C1 (centres unmarked)	-2.95
CCOC(=O)c1cc2cc(C)ccc2[nH]1	5.92
C=CCN1N=C(/C=C/c2ccccc2)CCC1=O	8.49
O=C(Nc1ccc2c(c1)OCO2)c1ccc(Br)o1	9.54
CCOc1ccc2nc(NC(=O)CSc3nnnn3C3CCCCC3)sc2c1	3.87
NS(=O)(=O)c1ccc(CCNC(=O)CN2CCN(c3ccccc3F)CC2)cc1	12.7
COc1ccc(/C=C/C(=O)NC(C)(C)C)cc1S(=O)(=O)N1CCOCC1	-0.362
CCOC(=O)N1CCN(c2c(NCCN(C)Cc3ccccc3)c(=O)c2=O)CC1	8.5
Cc1ccc(NC(=O)c2sccc2-n2cccc2)c(Cl)c1	6.75
[Br-].c1cnc(N2CC[N+]3(CCCC3)CC2)nc1	6.62
O=C1/C(=C\c2cccc([N+](=O)[O-])c2O)SC(=S)N1Cc1ccccc1	28.6
C[C@]12CC[C@H](O)C[C@H]1CC[C@@H]1[C@@H]2CC[C@]2(C)[C@@H](C3=CC(=O)OC3)CC[C@]12O	17.2
